Results as given in PubChem BioAssay (Tox21).
The shares of active, inactive and inconclusive entries below differ from those in the screen. No potency is given beside an inconclusive call; the fits are too rough. Active and inactive are the calls of the source. The call rests on the fitted dose curve; in most records, active means well fitted curve in the direction sought with a large enough effect in the repeat runs; inconclusive means weak or mixed curves; inactive means no such curve, though single readings can be large; an effect the other way counts as inactive or inconclusive.
On the % scale 0 is the no-effect control and ±100 the full control effect; potency means the concentration at half of the fitted maximal effect; tags describe the fitted curve by direction and shape.

Assay: A CellTox Green Cytotoxicity Assay to monitor cytotoxicity in HepG2 cells - 40 hour (AID 1224879); further: nearly all actives have a fitted effect of over 40% in size
Details: CellTox Green fluorescence; series mostly up to 76.8 µM
Summary of the method: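 HepG2 cells were seeded together with the CellTox Green dye at 600 cells/well, left 5 h at 37 C/5% CO2, then given compounds in DMSO. Fluorescence from dye bound to dead-cell DNA was read repeatedly over 40 h of treatment at 37 C.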
For `CNS(=O)(=O)Cc1ccc2[nH]cc(CCN(C)C)c2c1`, the Potency was “inactive”. In the case of `CN(C)Cc1ccccc1O`, the Potency is reported as “inactive”. For `OC1CCC(C2CCCCC2)CC1` (centres undefined), the Potency was inconclusive [activator, partial curve, poor fit]. For `C=CCCCCCCCCCCCCCC`, the cytotoxicity increase was inactive: -1.48% [at 15.8 µM]. For `CCCc1c(OCCCOc2ccc(OCC(=O)O)cc2)ccc(C(C)=O)c1O`, the Potency was inconclusive [activator, single point]. With `CC(CC=O)c1ccccc1` (centres undefined) the Potency was “inactive”. With `CC(=O)OCC(=O)[C@@]1(O)CC[C@H]2[C@@H]3CCC4=CC(=O)CC[C@]4(C)[C@H]3C(=O)C[C@@]21C` the Potency was “inactive”. With `COc1cc(C(=S)N2CCOCC2)cc(OC)c1OC` the Potency was “inactive”. With `C=CCN(CC=C)CC=C` the Potency was “inactive”. In the case of `CCOc1ccccc1O[C@H](c1ccccc1)[C@H]1CNCCO1`, the Potency is reported as inconclusive [activator, single point]. With `Cc1cc2c(cc1CC(=O)c1sccc1S(=O)(=O)Nc1onc(C)c1Cl)OCO2` the Potency was “inactive”. With `O=S(=O)(O)CCS` the Potency was “inactive”.

Assay: qHTS RealTime-Glo MT Cell Viability Assay in HEK293 cells - 0 hour (AID 1224880); further: nearly all actives have a fitted effect of over 45% in size; on activity change, negative = cytotoxicity: top concentration of the series differs between compounds
Details: RealTime-Glo luminescence; series mostly up to 76.8 µM
Summary of the method: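 HEK293 cells mixed with RealTime-Glo reagents (NanoLuc plus cell-permeant prosubstrate) at 600 cells/well, preincubated 5 h at 37 C/5% CO2, then given 23 nL compound in DMSO. Nonlytic luminescence from viable cells was read at 0, 8, 16, 24, 32 and 40 h.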
In the case of `CCC(CC)(CC(=O)Nc1cccc(/C=C/c2nc(C3CCC3)cs2)c1)C(=O)O`, the Potency is reported as inconclusive [falling, partial curve, poor fit]. With `CC(C)N1C(=O)c2ccccc2C1=O` the Potency was “inactive”. For `Cc1cccn2c(=O)c(-c3nnn[nH]3)cnc12`, the activity change, negative = cytotoxicity was inactive: 7.45% [at 15.8 µM]. In the case of `CC(=O)OCC(=O)[C@@]1(O)CC[C@H]2[C@@H]3CCC4=CC(=O)CC[C@]4(C)[C@H]3C(=O)C[C@@]21C`, the Potency is reported as active: 6.01 µM. With `CCCCCCCCCO` the Potency was inconclusive [rising, partial curve, poor fit]. In the case of `COc1cc(C(=S)N2CCOCC2)cc(OC)c1OC`, the Potency is reported as “inactive”. For `NC1CCCCC1`, the Potency was inconclusive [rising, partial curve, poor fit]. With `Cc1c[nH]c2ccccc12` the Potency was “inactive”. For `Cc1cc2c(cc1CC(=O)c1sccc1S(=O)(=O)Nc1onc(C)c1Cl)OCO2`, the Potency was inconclusive [falling, single point]. With `CCCCCC=CCC=CCCCCCCCC(=O)OCC` the Potency was inconclusive [falling, partial curve, poor fit]. For `CCCCNC(N)=O`, the Potency was “inactive”. In the case of `O=S1(=O)CCCO1`, the Potency is reported as “inactive”.
